Experimental data as given in PMC4336329 (PLoS ONE, 2015).
Hit rate of the full screen: of about 310,000 compounds, about 14,000 (4.5%) showed an effect of 50% or more. The effect is printed as a negative number. The list shows a part of the results.

target: human ether-à-go-go-related gene (hERG) potassium channel (human, UniProt Q12809); test: primary screen, population patch clamp on CHO cells stably expressing hERG
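Further: peak tail current of the secondary pulse compared with the same well before compound.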

Sequence of human ether-à-go-go-related gene (hERG) potassium channel (Q12809 whole entry, looked up): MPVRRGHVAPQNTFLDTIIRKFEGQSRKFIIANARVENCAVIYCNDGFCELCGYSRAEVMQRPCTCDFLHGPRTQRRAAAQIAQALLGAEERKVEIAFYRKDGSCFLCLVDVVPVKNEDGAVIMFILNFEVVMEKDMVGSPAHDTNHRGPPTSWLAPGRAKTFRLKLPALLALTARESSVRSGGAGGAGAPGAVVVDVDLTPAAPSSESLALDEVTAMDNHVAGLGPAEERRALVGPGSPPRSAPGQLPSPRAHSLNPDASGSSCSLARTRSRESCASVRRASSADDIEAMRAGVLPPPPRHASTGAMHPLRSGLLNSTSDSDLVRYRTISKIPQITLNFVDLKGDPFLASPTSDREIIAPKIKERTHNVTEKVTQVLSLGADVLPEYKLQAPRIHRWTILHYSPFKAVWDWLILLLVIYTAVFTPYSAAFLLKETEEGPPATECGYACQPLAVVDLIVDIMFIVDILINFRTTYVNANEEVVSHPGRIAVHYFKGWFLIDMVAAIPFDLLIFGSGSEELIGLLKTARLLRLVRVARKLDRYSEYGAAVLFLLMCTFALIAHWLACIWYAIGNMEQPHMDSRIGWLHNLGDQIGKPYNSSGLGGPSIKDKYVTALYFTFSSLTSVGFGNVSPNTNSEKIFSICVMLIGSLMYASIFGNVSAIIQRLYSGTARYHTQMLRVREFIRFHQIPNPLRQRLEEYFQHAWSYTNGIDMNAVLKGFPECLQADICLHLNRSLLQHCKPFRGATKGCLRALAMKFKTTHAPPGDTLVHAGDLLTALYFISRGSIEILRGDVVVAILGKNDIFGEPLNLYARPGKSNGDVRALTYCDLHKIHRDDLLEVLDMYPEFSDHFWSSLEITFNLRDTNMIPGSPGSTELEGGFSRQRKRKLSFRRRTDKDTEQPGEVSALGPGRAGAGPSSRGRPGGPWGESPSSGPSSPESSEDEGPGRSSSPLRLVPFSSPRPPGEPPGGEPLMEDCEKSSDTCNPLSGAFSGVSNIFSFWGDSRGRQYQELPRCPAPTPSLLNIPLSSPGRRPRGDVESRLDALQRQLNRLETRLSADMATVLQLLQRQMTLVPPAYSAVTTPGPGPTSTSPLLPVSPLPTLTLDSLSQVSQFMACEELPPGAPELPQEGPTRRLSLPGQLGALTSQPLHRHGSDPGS

Row | Structure (SMILES) | hERG current change (%, negative = inhibition) at 10uM [%]
1 | Cc1nnc(-c2ccc(Oc3ccc(C)c(C)c3)c([N+](=O)[O-])c2)o1 | -14.7
2 | CCn1cc(C(=O)NCCc2ccccc2)c(=O)c2cc(S(=O)(=O)N3CCCC3)ccc21 | 1.7
3 | COc1cc(-c2noc(CCCC(=O)Nc3ccc(C(N)=O)cc3)n2)cc(OC)c1OC | 15.6
4 | Cc1nn(-c2ccccc2)c(C)c1C(=O)OCC(=O)Nc1ccc2c(c1)OCO2 | -26.5
5 | O=C(CCNS(=O)(=O)c1ccc(OC(F)(F)F)cc1)NCCc1c[nH]c2ccccc12 | 9.12
6 | O=C(CCc1c[nH]c2ccccc12)Nc1ncccc1O | 12
7 | CC(=O)N(C)c1ccc(N=Nc2c(C)[nH]n(-c3ccccc3)c2=O)cc1 | 8.49
8 | CC(=O)Nc1ccc(SC(C)C(=O)NC2CCCC2)cc1 (centres unmarked) | 5.15
9 | CCN(CC)S(=O)(=O)c1ccc2oc(SCC(=O)NC3CC3)nc2c1 | -8.91
10 | COc1ccc(-c2csc(NC(=O)COC(=O)C3=COCCO3)n2)cc1 | 21.4
11 | Nc1ccc(NC(=S)Nc2ccccc2)cc1 | 14.9
12 | COc1ccc(Cc2nc(-c3ccc(Br)cc3)no2)cc1 | -4.05
13 | COc1cccc(CNC(=O)CC(NC(=O)c2ccccc2)c2ccccc2)c1 (centres unmarked) | -16.6
14 | Cc1nc2ccc(NC(=S)N3CCCC3)cc2nc1C | 10.4
15 | CCN(CC)C(C(=O)Nc1ccc2c(c1)OCO2)c1ccccc1 (centres unmarked) | -24.3
16 | CCOC(=O)c1cccc(NC(=O)Cn2cc3c(n2)CCC(C)C3)c1 (centres unmarked) | 10.1
17 | COCCN(Cc1ccccc1)C(=O)c1cc(S(=O)(=O)N2CCCCCC2)ccc1OC | -18.8
18 | Cc1nnc(SCC(=O)Nc2ccc(N(C)C)cc2)n(N)c1=O | 25.2
19 | CCN(CC)S(=O)(=O)c1ccc(N2CCOCC2)c(NS(=O)(=O)c2cc(C(C)(C)C)ccc2C)c1 | 1.08
20 | CCCN(CCC)C(=O)C(CCC(=O)O)NC(=O)c1ccccc1 (centres unmarked) | -27.2
21 | CC(=O)NC(CCS(C)(=O)=O)C(=O)Nc1ccccc1Cl (centres unmarked) | 7.81
22 | C#CCOCCOCCOCCNc1nc(N2CCN(C(=O)[C@H](CCC(=O)O)n3cc(C(N)[C@H](C)CC)nn3)CC2)nc(N2CCN(C(=O)[C@H](Cc3ccc(O)cc3)n3cc(C(N)[C@H](C)CC)nn3)CC2)n1.Cl (some centres unmarked) | 7.62

Row | Structure (SMILES) | hERG current change (%, negative = inhibition) at 10uM [%]
23 | Cc1cc([N+](=O)[O-])ccc1NC(=S)NC(=O)C(c1ccccc1)c1ccccc1 | -1.1
24 | COc1ccc(NC(=O)c2sc(N)nc2-c2ccccc2)cc1 | -1.72
25 | CCOc1ccccc1-c1nc2c([nH]1)c(=O)n(C)c(=O)n2C | -10.5
26 | CCOc1cccc(C2/C(=C(/O)c3ccc4c(c3)CC(C)O4)C(=O)C(=O)N2Cc2ccncc2)c1 (centres unmarked) | 9.67
27 | O=C(Cc1ccc(S(=O)(=O)N2CCCCC2)s1)Nc1cccc2ccccc12 | 10.8
28 | CCCOc1ccc(-c2c(C(=O)N/N=C/c3ccccc3)nnn2-c2nonc2N)cc1 | 4.98
29 | C/C(=N/NC(=S)Nc1ccccc1)c1ccc2c(c1)OCO2 | 15.4
30 | O=C(O)Cc1csc(-c2ccccc2)n1 | 14.4
31 | Oc1c(C=Nc2cccc3cccnc23)sc2ccccc12 | 11.8
32 | COc1cccc(/C=C2\SC(=S)N(N3CCOCC3)C2=O)c1OC | -0.973
33 | Cc1ccccc1N(CC(=O)NC1CCCCC1)C(=O)CCC(=O)Nc1nccs1 | -8.14
34 | O=[N+]([O-])c1ccc(O)c(C=Nc2cccc3ccccc23)c1 | 2.26
35 | COc1cccc(-c2cc3nc4c(c(N5CCC6(CC5)OCCO6)n3n2)CCC4)c1 | 4.96
36 | CS(=O)(=O)N(CC(=O)N1CCN(c2cccc(Cl)c2)CC1)c1cccc(F)c1 | -33.8
37 | COC(=O)c1ccc(NC(=O)CN2CCN(c3ccccc3)CC2)cc1 | -23.5
38 | Cc1cc(C)n(CC(=O)n2c(C)c(C)c3ccccc32)n1 | 3.04
39 | Cc1cccc(NS(=O)(=O)c2cccc3nsnc23)c1 | -5.25
40 | CC(C)[C@H](NC(=O)c1c(F)cccc1F)C(=O)Nc1cccc(Br)c1 | 7.41
41 | COc1ccc(-c2noc(CSc3nc(N)c(-c4ccccc4)c(=O)[nH]3)n2)cc1OC | 9.94
42 | C#CC[N+](C)(C)CCCCCCCC.[Br-] | -15.9
43 | Cc1nn(CC(=O)NCCc2cccs2)c(=O)c2cc3ccccc3n12 | 18.9
44 | COc1ccc(Oc2nccc(OC)c2C#N)cc1 | -0.188

Row | Structure (SMILES) | hERG current change (%, negative = inhibition) at 10uM [%]
45 | COc1ccc(C(=O)OCC(N)=O)cc1[N+](=O)[O-] | -25.1
46 | O=c1cc(CO)occ1OCc1cccc(C(F)(F)F)c1 | -4.65
47 | Cc1ccnc(NC(=O)c2ccc(Cl)c(S(=O)(=O)N3CCCC3)c2)c1 | -15.7
48 | O=C(OCC(=O)c1cccs1)c1ccccc1 | -5.06
49 | CCC(Oc1ccccc1)C(=O)N1CCN(C(=O)C(CC)Oc2ccccc2)CC1 (centres unmarked) | -33.5
50 | O=C(CCNC(=O)C1CCN(S(=O)(=O)c2ccccc2)CC1)NCc1ccc(Cl)cc1Cl | -45.1
51 | CCCc1ccc2oc(C(=O)NCCN3CCCC(C(N)=O)C3)c(C)c2c1 (centres unmarked) | -48.8
52 | CCCCc1nc2ccccc2c(=O)n1NC(=O)c1c(O)c2ccccc2n(C)c1=O | 7.59
53 | CNC(=O)c1csc(-c2ccccc2)n1 | 0.516
54 | Cc1ccc(C(=O)NCc2n[nH]c(=S)n2-c2ccccc2)cc1[N+](=O)[O-] | 7.76
55 | COc1cccc(-c2cc(C(=O)Nn3cnnc3)c3ccccc3n2)c1 | 3.11
56 | Cc1ccc(-n2c(SCC(=O)N3CCOCC3)nnc2-c2ccncc2)cc1C | -10.6
57 | CC(/C=N/Nc1nncc(=O)[nH]1)=C\c1ccccc1 | 3.08
58 | Cc1ccc(S(=O)(=O)N(C)c2c(C)ccc(S(=O)(=O)Nc3ccncc3)c2C)cc1 | 7.82
59 | COc1ccc(N2CCN(S(=O)(=O)CCNC(=O)COc3ccccc3C)CC2)cc1 | 1.17
60 | CCOc1ccc(/C=C2\SC(=S)N(NC(=O)c3ccncc3)C2=O)cc1OC | 16.9
61 | Cn1c(N)c(C(=O)COC(=O)c2ccc([N+](=O)[O-])o2)c(=O)n(C)c1=O | -34.6
62 | CCCCCOC(=O)CSc1nc2c(c(=O)[nH]c(=O)n2C)n1Cc1ccc(Cl)cc1 | -11.8
63 | CC1CN=C(N(Cc2ccccc2)C(=O)Nc2ccccc2)S1 (centres unmarked) | 17.4
64 | CC(C)(C)NC(=O)CSc1nnc(-c2ccccc2)c(-c2ccccc2)n1 | -8.75
65 | CCOCCCn1c(=O)c2ccccc2n2c(=S)[nH]nc12 | 19.8
66 | COC(=O)C1=C(c2ccccc2)C[C@@H]2CC[C@H]1N2C(=O)NCCCOC(C)C | 0.331

Row | Structure (SMILES) | hERG current change (%, negative = inhibition) at 10uM [%]
67 | O=C(NC1CCCN(CCc2ccccc2)C1)c1c(F)cccc1F (centres unmarked) | -46.2
68 | CC1(C)CC(=O)C=C(c2cccc(Cl)c2O)C1 | -0.159
69 | COc1ccc(CC(=O)c2c(O)cc(O)cc2O)cc1OC | 7.54
70 | CC(=O)N1c2ccc(S(=O)(=O)N3CCC(C(=O)Nc4ncccc4C)CC3)cc2CC1C (centres unmarked) | 7.62
71 | CC(C)CNC(=O)NC(=O)COC(=O)c1cc(F)cc(F)c1 | -4.56
72 | CCCCNCc1ccc(SC)cc1.Cl | -22
73 | CN(C)c1ccc(CNC(=O)C2CCC(CNc3c(N4CCCCC4)c(=O)c3=O)CC2)cc1 (centres unmarked) | 15.7
74 | COc1ccc(C(=O)NC(=S)N2CCNC(=O)C2CC(=O)OC(C)C)cc1 (centres unmarked) | 11.4
75 | CC1CCCC(C)N1C(=O)c1ccc2c(c1)S(=O)(=O)c1ccccc1C2=O (centres unmarked) | -10.4
76 | Cc1c(Cl)cccc1NC(=S)NCCc1ccc(F)cc1 | 15.8
77 | COC(=O)c1nnn(CC(=O)NC(=O)Nc2ccccc2F)c1C(=O)OC | 7.82
78 | CCCCCCC(=O)N1CCN(c2cc3c(cc2F)c(=O)c(C(=O)O)cn3CC)CC1 | -18
79 | COCCCNC(=O)C1CC(=O)N(C2CCCC2)C1 (centres unmarked) | 11.6
80 | O=C(N/N=C/c1c(O)n(C2CC2)c(=S)[nH]c1=O)c1ccccc1 | 32.2
81 | CN(C)/N=C/C=C1\CC/C(=C\c2ccc(Br)cc2)C1=O | 8.94
82 | O=C1OCCN1c1c(-c2ccccc2)c(-c2cccs2)nc2c(-c3ccccc3)cccc12 | 7.82
83 | Cc1cc(C)c(C#N)c(SCC(=O)NN2CC(=O)N(c3ccccc3F)CC2=O)n1 | 4.43
84 | Cc1ccc(N2NC(=O)/C(=C/C=C/c3ccco3)C2=O)cc1C | 14.9
85 | O=C(C1CCN(S(=O)(=O)c2c(Cl)cccc2Cl)CC1)N1CCCCCCC1 | -10.9
86 | CC(=O)OC(COC1C[C@@H]2CC[C@@]1(C)C2(C)C)C[N+]1(C)CCCCC1.[I-] (some centres unmarked) | 12.5
